Data published in the supplement of paper PMC12217912.
Some of the results follow. The full chains were built here from the parent and the listed change. Inactive controls read about 0.05.

B1: TEV protease; numbered along this chain (parent)
chain: MGESLFKGPRDYNPISSSICHLTNESDGHTTSLYGIGFGPFIITNKHLFRRNNGTLVVQSLHGVFKVKDTTTLQQHLVDGRDMIIIRMPKDFPPFPQKLKFREPQREERICLVTTNFQTKSMSSMVSDTSCTFPSGDGIFWKHWIQTKDGQCGSPLVSTRDGFIVGIHSASNFTNTNNYFTSVPKNFMELLTNQEAQQWVSGWRLNADSVLWGGHKVFMVKPEEPFQPVKEATQL

Variants of: B1
Experiment: raw area under fraction-flipped curve 0-4 h after induction (AUC4h, not background-subtracted), DNA-recorder readout of cleavage of the substrate (dimensionless); higher = more cleavage of the substrate by the protease variant
Settings: temperature: 34 °C; time window: 0-4 h after rhamnose induction
Description: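 In vivo DNA recorder in E. coli TOP10(DE3) ΔrhaA at 34 °C. Each TEVp single-site mutant (parent TEVp 0) is paired with a single-site variant of the 7-mer TEVs (canonical ENLYFQ|S). The substrate sits between flexible linkers in a Bxb1-sfGFP-TEVs-SsrA fusion, so cleavage stabilises Bxb1 and speeds flipping of a recombination array, read by NGS. The value is the raw area under the fraction-flipped curve over 0-4 h after rhamnose induction (AUC4h), with ≥20 reads per time point. It is not background-subtracted; inactive controls average about 0.047.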
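Further: Bxb1 expression induced with 0.2% (w/v) L-rhamnose at OD600 near 0.5, cultures sampled hourly, flipped fraction per protease–substrate barcode pair counted by paired-end Illumina sequencing.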

Row | Variant | area with substrate EALYFQS | area with substrate ECLYFQS | area with substrate EDLYFQS | area with substrate EELYFQS | area with substrate EGLYFQS | area with substrate EHLYFQS | area with substrate EILYFQS | area with substrate EKLYFQS | area with substrate EMLYFQS | area with substrate EPLYFQS | area with substrate EQLYFQS | area with substrate ERLYFQS | area with substrate ESLYFQS | area with substrate ETLYFQS | area with substrate EVLYFQS | area with substrate EWLYFQS | area with substrate EYLYFQS | area with substrate ELLYFQS | area with substrate EFLYFQS
1 | K46G | 0.0886 | 0.0954 | 0.109 | 0.106 | 0.065 | 0.0845 | 0.0869 | 0.0932 | 0.0794 | 0.0936 | 0.0983 | 0.0806 | 0.0798 | 0.0732 | 0.0862 | 0.085 | 0.0787 | – | –
2 | H62Q | 0.0934 | 0.0817 | 0.129 | – | 0.1 | – | 0.0834 | 0.0738 | – | – | – | – | – | – | 0.0823 | 0.0979 | 0.115 | – | –
3 | H62G | 0.113 | 0.143 | 0.108 | 0.149 | – | – | 0.0994 | 0.0844 | 0.0992 | – | 0.11 | – | – | 0.1 | 0.0994 | – | – | 0.0869 | –
4 | H62P | 0.102 | 0.0918 | – | – | – | – | – | 0.074 | 0.115 | – | – | – | – | 0.11 | 0.0789 | 0.0821 | 0.0793 | 0.0681 | –
5 | H62T | 0.113 | 0.1 | 0.0921 | 0.112 | – | 0.102 | – | 0.106 | – | – | 0.089 | 0.0908 | 0.103 | 0.0966 | – | 0.0935 | – | 0.0886 | 0.103
6 | T55R | 0.142 | – | 0.0867 | – | 0.0786 | 0.0835 | – | – | 0.098 | – | – | – | 0.104 | 0.11 | – | 0.0964 | 0.106 | 0.101 | –
7 | Q75G | 0.115 | 0.0966 | – | 0.0977 | 0.074 | – | – | 0.0854 | 0.103 | – | 0.142 | – | 0.0918 | – | – | – | – | – | –
8 | Q75Y | 0.0803 | 0.0693 | 0.0824 | 0.065 | 0.056 | 0.0787 | 0.0629 | – | 0.0746 | 0.0804 | 0.0569 | 0.069 | 0.0747 | 0.0669 | 0.0497 | – | 0.0674 | – | –
9 | Q75S | 0.0803 | 0.0791 | 0.0976 | – | – | 0.0649 | 0.0874 | – | 0.0967 | 0.0987 | – | – | 0.0797 | – | 0.0681 | 0.0661 | 0.0759 | 0.0755 | –
10 | D91Y | 0.135 | 0.0836 | – | 0.098 | – | 0.0921 | 0.0677 | – | 0.0981 | 0.093 | 0.101 | 0.0949 | 0.0846 | – | 0.0912 | 0.088 | 0.0954 | – | –
11 | D91G | 0.11 | 0.116 | – | 0.208 | – | 0.099 | 0.122 | 0.101 | – | 0 | 0.112 | 0.107 | 0.1 | – | 0.0862 | – | 0.107 | 0.0827 | 0.119
12 | F65K | 0.131 | 0.104 | – | – | 0.0561 | – | 0.104 | 0.129 | 0.0773 | 0.126 | 0.141 | 0.0962 | 0.0901 | 0.0994 | – | 0.0963 | – | – | –
13 | F65C | 0.14 | 0.11 | 0.133 | – | – | 0.0655 | – | – | 0.0944 | – | 0.0969 | – | 0.122 | – | 0.137 | 0.0914 | – | 0.0804 | –
14 | I36G | 0.0612 | – | – | – | 0.0446 | – | – | 0.0515 | – | – | 0.0269 | – | 0.0418 | – | 0.0383 | – | – | – | 0.0413
15 | I84K | 0.0427 | 0.0563 | – | 0.0538 | 0.0555 | – | 0.0566 | – | 0.058 | 0.0512 | 0.0534 | 0.0234 | 0.0603 | – | 0.0627 | 0.0524 | 0.0516 | – | –
16 | I84L | 0.0866 | 0.079 | – | – | 0.064 | 0.114 | – | – | 0.142 | 0.0936 | – | 0.0848 | 0.0786 | 0.182 | 0.0991 | 0.0696 | 0.0893 | 0.114 | –

Row | Variant | area with substrate EALYFQS | area with substrate ECLYFQS | area with substrate EDLYFQS | area with substrate EELYFQS | area with substrate EGLYFQS | area with substrate EHLYFQS | area with substrate EILYFQS | area with substrate EKLYFQS | area with substrate EMLYFQS | area with substrate EPLYFQS | area with substrate EQLYFQS | area with substrate ERLYFQS | area with substrate ESLYFQS | area with substrate ETLYFQS | area with substrate EVLYFQS | area with substrate EWLYFQS | area with substrate EYLYFQS | area with substrate ELLYFQS | area with substrate EFLYFQS
17 | I84Y | 0.0639 | 0.058 | – | 0.0542 | 0.0617 | 0.0513 | 0.047 | 0.0482 | 0.0513 | 0.0578 | 0.0421 | 0.0567 | 0.0575 | – | 0.0441 | 0.0565 | 0.0512 | – | –
18 | V57H | 0.0943 | – | 0.142 | – | – | 0.113 | – | 0.129 | 0.117 | 0.138 | – | 0.11 | 0.097 | – | 0.113 | – | – | – | –
19 | V57P | 0.0466 | – | 0.0407 | – | 0.0367 | 0.0468 | 0.0419 | – | 0.0461 | – | 0.0462 | 0.0506 | 0.0482 | 0.105 | 0.0417 | – | 0.0527 | 0.0452 | –
20 | R51Q | 0.131 | – | – | 0.128 | 0.104 | – | 0.0988 | 0.129 | 0.112 | 0.166 | 0.148 | 0.164 | 0.113 | – | – | 0.116 | – | – | –
21 | P89G | 0.102 | 0.101 | – | – | – | – | – | 0.077 | – | 0.117 | – | 0.0729 | – | – | 0.101 | 0.0563 | – | – | –
22 | P89D | 0.127 | 0.0943 | – | 0.138 | – | – | – | – | – | – | – | – | 0.0967 | – | 0.0814 | – | – | 0.0794 | –
23 | K90T | 0.122 | 0.099 | 0.12 | 0.111 | 0.0873 | 0.142 | 0.0825 | 0.104 | – | 0.135 | 0.121 | – | 0.106 | 0.119 | 0.105 | 0.117 | 0.127 | – | –
24 | D79R | 0.0958 | 0.0114 | 0.0928 | 0.0968 | 0.0729 | 0.12 | 0.088 | 0.0349 | 0.0643 | 0.0757 | – | – | 0.0827 | 0.0789 | 0.0815 | – | 0.102 | 0.062 | 0.065
25 | D79Y | 0.0934 | 0.0933 | – | – | – | 0.133 | 0.0712 | – | – | – | – | – | 0.107 | – | – | 0.0809 | – | 0.0752 | –
26 | D79C | 0.122 | – | – | – | 0.097 | – | 0.0896 | 0.0913 | – | 0.125 | 0.105 | – | 0.0737 | – | – | 0.079 | – | – | –
27 | S60I | 0.0748 | 0.083 | – | – | 0.0693 | – | 0.0666 | – | – | – | 0.115 | – | – | – | 0.0813 | – | – | – | –
28 | S60N | 0.113 | 0.09 | 0.106 | 0.102 | 0.0893 | 0.099 | 0.0858 | 0.11 | 0.0956 | 0.129 | – | 0.0922 | 0.119 | – | – | 0.0898 | – | 0.118 | –
29 | P93G | 0.119 | 0.0971 | – | – | – | 0.0871 | – | 0.0981 | 0.131 | – | – | 0.097 | 0.0966 | – | 0.0907 | – | – | – | 0.119
30 | P93E | 0.143 | 0.112 | – | 0.147 | 0.049 | 0.194 | – | – | 0.144 | – | – | – | 0.132 | – | 0.124 | 0.146 | 0.125 | – | 0.112
31 | V67E | 0.0807 | 0.0971 | – | – | – | – | 0.0892 | – | – | – | – | – | – | – | – | – | – | – | –
